The other results are listed elsewhere or left out.

The values that follow come from article PMC12040169 (PLOS Biology, 2025).

In the assay the test system is T1, C. trachomatis L2/434/Bu expressing GFP (CTL2-GFP).
T1 construct: L2/434/Bu GFP intracellular growth in HeLa cells
Further details: species or system HeLa; C. trachomatis total inclusion area by high-content imaging, normalised to DMSO. The following applies: total inclusion area; 28.5 h, 10 µM; inhibitor. In short, it runs like this: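 Imaging read-out: GFP inclusions and Hoechst nuclei captured by high-content imaging after fixation. Inclusion area/number = chlamydial growth; nuclei count = host cell viability. MIC calculated per earlier method.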
In the case of `Nc1c(Cc2c(Cl)cccc2Cl)c(=O)n2n1CCC2` [CBK088948], the “% of control remaining” value is on record as 87.9625. For `O=C1COc2ccccc2C/C=C/CC2(CCN(CC(=O)N3CCCC3)CC2)CN1` [CBK292126] the value was 69.4672; for `Cc1nn(C)cc1-c1cncn1CCOc1ccc(Cl)cc1` [CBK281508], 112.219; for `O=C(Cn1ncc2ccccc2c1=O)NNC(=S)NC1CC2CCC1C2` (stereo not shown) [CBK267892], 88.5414. For `OCC12COC3c4ccccc4C(OC1)N32` (stereo not shown) [CBK006347] the value was 99.2653; for `CC1CCc2c(sc(NC(=O)Cn3cnc([N+](=O)[O-])n3)c2C(N)=O)C1` (stereo not shown) [CBK263064], 106.592. As for `O=c1nc(NC2CCCCC2)sc2ncccc12` [CBK067024T], the “% of control remaining” value is 81.6837. Under `O=C(O)CC1(O)C(=O)N(Cc2ccccc2)c2ccccc21` (stereo not shown) [CBK286673] stands 92.2452; under `O=C(CC1(C(F)(F)F)NCCN1)c1cccc([N+](=O)[O-])c1` [CBK263443], 79.9499. For `FC(F)(F)c1nc2ccccc2nc1SCc1cccs1` [CBK103728], the “% of control remaining” value is reported as 92.226. Regarding `CCOc1cc(C=O)ccc1OCc1c(C)no[n+]1[O-]` [CBK263449], the “% of control remaining” value came out at 108.706. For `Cc1ccccc1CN1CCC(O)(c2cccnc2F)CC1` [CBK284376] the value was 84.1393; for `O=S(=O)(c1ccccc1)N1CC2(CCNCC2)c2ccccc21` [CBK137413], 6.75; for `c1ccc2cc(-c3cnc(N4CCOCC4)c4nccn34)ccc2c1` [CBK091307], 110.322. Under `COc1c(C(N)=O)c(O)c(OC)c2occc12` [CBK016255] stands 44.4008; under `CSc1cccc(NC(=O)N2CCN(C(=O)C3CCCO3)CC2)c1` (stereo not shown) [CBK043283], 58.8006; under `Cc1c(NC(=O)CSc2nnc(-c3ccc4ccccc4n3)s2)c(=O)n(-c2ccccc2)n1C` [CBK269341], 130.125. For `CCC(C)C(NC(=O)c1ccccc1NC(=O)c1ccc(OC)cc1)C(=O)O` (stereo not shown) [CBK296090] the value was 100.233; for `CCN1CCC2CCC(C1)N2Cc1ccc(Oc2cnccn2)cc1` (stereo not shown) [CBK304034], 75.7969; for `C[C@@H](Nc1nccnc1-c1cccc(F)c1)c1ccccc1` [CBK036733], 61.6282. For the compound `Cc1ccc(CC(=O)Nc2nc(Cc3n[nH]c(=S)n3C)cs2)cc1` [CBK296766], the “% of control remaining” value came out at 102.824. `CN(C)CCN(C)c1cncc(-c2cccc(C(F)(F)F)c2)n1` [CBK065584]: the “% of control remaining” value came to 99.2836. For `CC(Cn1cccn1)NCC(=O)N(C)C1(C#N)CCCCC1` (stereo not shown) [CBK305096], the “% of control remaining” value amounted to 99.5788. For `O[C@@H]1C[C@@H](c2nc(-c3ccc4c(c3)OCO4)no2)N(Cc2cc3ccccc3o2)C1` [CBK288868], the “% of control remaining” value is listed as 98.0706.

As to `CCc1onc(C)c1C(=O)NC(Cc1ccsc1)c1nccs1` (stereo not shown) [CBK285142], the “% of control remaining” value came to 93.9022. Under `CC(C)[C@@H](CO)Nc1nc(-c2cccc3ccccc23)cnc1N` [CBK063725] stands 148.963. Under `CCOc1cccc(C(=O)NC(=S)Nc2nc(C)c(C(=O)OC)s2)c1` [CBK092056] stands 101.098; under `CN1CCN(C(=O)C[C@@H]2CCNC[C@@H]2Cc2cc(CC3CCCCC3)on2)CC1` [CBK289151], 88.3645.

Take `CCC1C=CCC(C(=O)O)C1C(=O)Nc1ccc(C(=O)N2CCOCC2)cc1` (stereo not shown) [CBK265798]: the “% of control remaining” value is 122.658. For `Cc1cc2c(s1)c1cnn(CC(=O)NC3CCCC3)c(=O)c1n2C` [CBK284189], the “% of control remaining” value was found to be 50.9344. Under `Cn1c(=O)c2c(nc(CN3CCC(Cc4ccccc4)CC3)n2CC(=O)c2ccccc2)n(C)c1=O` [CBK236846] stands 92.2096; under `O=C(c1cccc([N+](=O)[O-])c1)N1CCN(S(=O)(=O)N2CCOCC2)CC1` [CBK267469], 88.1594; under `O=C(N1CCC=C(F)C1)C12CCOCC1CN(c1ncccn1)C2` (stereo not shown) [CBK304264], 86.2899. Under `CN(C)c1ccc(-c2cc(N3CCN(S(=O)(=O)c4ccc(Cl)cc4)CC3)ncn2)cc1` [CBK091158] stands 105.04; under `CSc1nsc(SCC(=O)c2cc3ccccc3oc2=O)n1` [CBK268833], 108.213; under `CN(C)Cc1cc(-c2ccccc2F)nn1CCNC(=O)C1CC1` [CBK282006], 110.019. For `O=C1S/C(=C/c2ccc(Cl)cc2)C(=O)N1c1ccc(F)cc1` [CBK113265], the “% of control remaining” value came out at 75.4041. Under `OCCN1CC2(CCN(Cc3cccc4cccnc34)CC2)c2ccccc21` [CBK137014] stands 83.9768. For `COC(=O)CCC(=O)N1CCC(Cn2cncn2)(C2CCCCC2)CC1` [CBK136810] the value was 74.6757. Under `CN(C)CCN1C(=O)CCc2ccccc21` [CBK023390C] stands 15.0982; under `OC(Cc1ccccc1)c1cc2n(n1)CCN(Cc1ccsc1)C2` (stereo not shown) [CBK307603], 95.8049; under `O=C(NCc1ccc2c(c1)OCO2)C1CN(S(=O)(=O)c2ccccc2)CCN1S(=O)(=O)c1ccccc1` (stereo not shown) [CBK267059], 129.072. As to `O=C1c2ccccc2C2OCc3ccccc3N12` (stereo not shown) [CBK109952], the “% of control remaining” value stood at 99.0078. For `Cc1ccc2nc(C)cc(NCCO)c2c1` [CBK126909] the value was 62.2148; for `O=C(NCCCCn1ccnc1)c1noc2c1CCCC2` [CBK283208], 108.861; for `COc1ccc(N2CCN(c3cc(-c4ccccc4OCc4ccccc4)ncn3)CC2)cc1OC` [CBK091024], 74.7657. For `CCOC(=O)CC(O)(c1ccc(OC)cc1)c1cc(C)no1` (stereo not shown) [CBK023133] the value was 75.5359; for `CN(C)CCN1CCN(c2cccc(-c3ccc(-c4ccccc4)cc3)n2)CC1` [CBK037610], 89.4366. For `C=CCn1c(C)c(CN2CCc3c(nc(C)[nH]c3=O)C2)c2ccccc21` [CBK283990] the value was 94.5316; for `CCCn1nccc1C(=O)NC1CCCN(Cc2cccc(OC)c2)C1` (stereo not shown) [CBK306563], 51.9375; for `CCn1cc(S(=O)(=O)NCc2ccccc2F)cn1` [CBK270306], 74.7979.

Turning to `Cc1cc(C(=O)NCc2cccnc2N(C)C2CCCCC2)[nH]n1` [CBK306668], the “% of control remaining” value is 75.9945. Consider `O=C(c1cccnc1)C1CCN(C(=O)Cc2ccccc2Cl)CC1` [CBK283690], for which the “% of control remaining” value is 88.6253. As for `CC(C)(C)c1nnc(NCC2CCCCC2)s1` [CBK075043], the “% of control remaining” value stood at 104.424. Under `O=C(N[C@H]1C[C@H](c2nnc(CO)n2C2CC2)C1)c1ccc(Cl)c(F)c1` [CBK307093] stands 104.553. Under `C=CCNC(=O)N[C@H]1C[C@H]2C(=O)Nc3cc(Cl)ccc3C(=O)N2C1` [CBK289365] stands 88.2069; under `O=C(O)CCCC(=O)Nc1ccccc1C(=O)NCc1ccco1` [CBK299840], 113.25. Under `O=C(O)C1CC(=O)N(Cc2ccccc2)C1c1ccccc1` (stereo not shown) [CBK286876] stands 90.3044; under `CC1CN(Cc2nc3c(c(=O)n(C)c(=O)n3C)n2CCCc2ccccc2)CC(C)O1` (stereo not shown) [CBK269349], 87.1832. Consider `CCCCC(c1cccnc1)N(C)C(=O)Cn1ccccc1=O` (stereo not shown) [CBK306936], for which the “% of control remaining” value came out at 38.9217. For `COc1cc(-c2nc(C(C)=O)c(C)n2O)cc(OC)c1OC` [CBK270083] the value was 87.8938. For `Clc1ccc(-n2ncc(-c3ccsc3)n2)cc1Cl` [CBK112843] the value was 91.4621; for `Cc1nc(-c2ccc(NC(=O)CC(C)n3cccn3)cc2)cs1` (stereo not shown) [CBK281403], 115.051. For `Cc1cc2c(s1)c1cnn(CC(=O)N3CCCCC3)c(=O)c1n2C` [CBK284187] the value was 73.8975; for `O=C(NCc1cccnc1)c1ccc(-c2cccc(Cl)c2Cl)o1` [CBK112211], 85.1894; for `O=C(Nc1nc(-c2ccccc2)ns1)c1ccncc1` [CBK113234], 113.329. As to `Clc1cccc(-n2cnnn2)c1Cl` [CBK027665], the “% of control remaining” value worked out at 54.9123.

As to `O=C(Nc1cccnc1)N1CCCCC1CO` (stereo not shown) [CBK155990], the “% of control remaining” value came out at 72.4144. Under `COC(=O)c1ccc(NC(=O)C2Cc3ccccc3CN2S(=O)(=O)c2cccs2)cc1` (stereo not shown) [CBK265693] stands 113.986. For `COc1cc(F)ccc1-c1ccc(NS(C)(=O)=O)c2ccccc12` [CBK083744] the value was 86.0332; for `O=C(O)CCSC(CC(=O)c1ccccc1)c1ccc(Cl)cc1` (stereo not shown) [CBK077251], 92.672. For `C[C@@H]1C(=O)O[C@H]2[C@H]1CC[C@@]1(C)Cc3sc(NC(=O)CN(C)C)nc3[C@@H](C)[C@H]21` [CBK289431] the value was 102.387; for `NC(=O)CN1CCN(c2nccnc2Oc2ccc(F)cc2)CC1` [CBK083018T], 108.277; for `O=c1[nH]c(=S)c2c(n1CCc1ccccn1)CCCC2` [CBK023951G], 84.4701. Take `O=C(O)CC(C(=O)O)c1ccc(Cl)cc1Cl` (stereo not shown) [CBK268523]: the “% of control remaining” value amounted to 106.257. For `CCCCOc1ccc(C(=O)N(C)c2cnn(C)c2)c(O)c1` [CBK306167] the value was 28.0231.

Take `CCn1cc(-c2cncn2CC(C)N2CCCCC2)cn1` (stereo not shown) [CBK281556]: the “% of control remaining” value was 88.9033. Under `CC(C)C1C(=O)Nc2ccccc2N1C(=O)NCCC(=O)O` (stereo not shown) [CBK286659] stands 72.8809.

With `CC(C)(C)C(=O)Nc1ccc(S(=O)(=O)NC2CCCCC2)cc1` [CBK268783], the “% of control remaining” value is recorded as 103.221. For `COCCOc1cccc(OCCOc2nccnc2N2CCNC[C@H]2C)c1` [CBK048435] the value was 103.203; for `FC(F)(F)c1ccc(OCCCc2ccncc2)nc1` [CBK115791], 90.7872.

Regarding `C=CCN1C(=O)C2(CC(=O)N(CCC3CCCCC3)C2=O)c2ccccc21` (stereo not shown) [CBK075160], the “% of control remaining” value was found to be 77.6168.
